Read counts are not given, so values of variants with three or more changes are uncertain.
B1: LINE1-mini (parent)
chain: GGCAGAGCUCAACACAGCGUGGCAAAGUGGCUGUGGCUAGACUGCC

Variants of: B1
Assay: self-cleavage, relative activity (ratio to wild type); higher = more cleavage; in vitro, sequencing; the parent is a self-cleaving ribozyme

Row | Variant | self-cleavage
1 | G2U G5U C15A | 0.02
2 | A6U U9A C10G C23U C31U | 0.03
3 | G5U A12C C13U A14G | 0.02
4 | C10A C13U G44U | 0.02
5 | U9C U20G G27C G36A C37A U38G | 0
6 | U9A C15A A39U A41U | 0.61
7 | A4U A11C C15U G36C | 0.02
8 | U9C C13A C18G G44A | 0.03
9 | C8G U9A U28C U34A | 0.1
10 | G1C C13A G22U | 0.01
11 | G1C A4G U20C U28A A41C C42U | 0.02
12 | A14U A16G G19U G27A U38G | 0.02
13 | C15U G21C A41U | 0.2
14 | G7U A24G G30C G44U | 0.02
15 | G2A C15U A16G C42U U43A | 0.01
16 | A14U G29A C31A | 0.02
17 | A11C A14C G19U | 0
18 | C15U A41C C46G | 0
19 | G1C U9C C46A | 0.03
20 | G5A C8A U9A U43C | 1.93
21 | C13A C18G G22A G27C G35A G36A | 0.66
22 | A11C G30U U32G U38G A39U | 0.02
23 | U9C A12G C45A | 0.04
24 | G7C C10A C37U | 0

Row | Variant | self-cleavage
25 | C8U G21A U28C G35C | 0.26
26 | C3U A12U C13A G17C | 0.08
27 | A12U G21U G40U C46U | 0.02
28 | A6U A11U A26C C42G | 0.01
29 | G7A C15G G19A G21U A24U G29C | 0.09
30 | G2A A4C A12G G40U | 0.06
31 | A4G C10G G36U | 0.01
32 | G5C C15G A16G | 0
33 | A11G C15A U32A | 0.07
34 | G2A A12G G29A C46A | 0.11
35 | A24C C31U C42U | 0.02
36 | A11C C15G G36A G44U | 0.01
37 | C13G U20G G22U U32C U34C C46G | 0.02
38 | C8G U9G A25G | 0.01
39 | A6U G22C G36C | 0.3
40 | A14G G35A G40U | 0.09
41 | A12G U28A G33C G36U C46G | 0.02
42 | C10U C23A C45G | 0.27
43 | G1C A4C G19U A26C U28C C31U | 0.01
44 | C18G A24C C45A | 0
45 | C8U C15U G22A G30A | 0.3
46 | A12G G17U G40A | 0
47 | C18A A25C U34A A39G C46G | 0.01
48 | A4G C13G C18G | 0.13

Row | Variant | self-cleavage
49 | A6U A14U C18U | 0.05
50 | C13A G33C G40U | 0.02
51 | G5U A6C A11C | 0.01
52 | G21U G33U G35U | 0.1
53 | A4U A6G U9G U20G C37G | 0.01
54 | U9A C15A G40A C46U | 0.08
55 | A26U C31A U43G C46A | 0.06
56 | G27U U28C G44A | 0.03
57 | G1U A12C C13A C15U G21A A26G | 0.01
58 | A6U G7U A26C U28A C37U A39U | 0.01
59 | A4C G33U U38A | 0.06
60 | A4C C13A G19U U28C A39G G44A | 0.01
61 | U9G G36U A39C | 0
62 | A6G C15G G29U C31A | 0.02
63 | C15U G17U C31G | 0.05
64 | A6U A16U G22A A25U G40C | 0.02
65 | C3G A11C G19A C31U G33U C46A | 0.05
66 | G21A C23U G27C | 0.77
67 | C15A G17C G29A G30C | 0.02
68 | C10G G19A C31U C37G | 0.02
69 | G19A G33U C46G | 0.03
70 | G5U U9A G21C | 0.02
71 | G29U A39U C46G | 0.04
72 | G21C C31A U34A G36A | 0.03

Row | Variant | self-cleavage
73 | G2C C10A G21U | 0.05
74 | A4U G7C A11U A16C G19U G29C G33A | 0.01
75 | C18G G22A G36A | 0.02
76 | C3U G21U U34C | 0.39
77 | C3A C10A C45U | 0.03
78 | A4G C18U A24C A25U | 0.07
79 | A4C U28G A41U | 0.15
80 | C18G U20A U28A G33U | 0.11
81 | A6C G17C G30C | 0.05
82 | C8A A12G G22A C23G A26U | 0.05
83 | A12U C18U G36U | 0.03
84 | G7A A16G G21U | 0.16
85 | A6U G27C U38A A41G | 0.3
86 | G21A G33A G40U | 0.02
87 | C8A A24U C42U | 0.16
88 | A6U A16C G17U U28A | 0.01
89 | G5U G21C G35A | 0.15
90 | A14U G27C U28A U43C | 0.03
91 | C37G A39C G44C | 0.06
92 | C10A G29U U38G | 0.08
93 | G5C G29C C37U | 0.04
94 | G7A C10A U28C A41U | 0.01
95 | A4C U9A C23U A26U | 0.29
96 | G2U C3A A12C | 0.01

Row | Variant | self-cleavage
97 | U32G U34G C37G | 0.02
98 | G7U C37U U38A | 0.03
99 | C18U G19U G29C C45G | 0.08
100 | C18G G22U G30A | 1.19
101 | A6U U9A G27A | 0.27
102 | G2U A12C G17U A39G A41U | 0.01
103 | A4C G17U C45A | 0.02
104 | G36U U38C G44C | 0.06
105 | G1U A12G A26U G30U A39U | 0.02
106 | C13A A26G G29C | 0.05
107 | G2U C8U A12U G29U | 0.03
108 | U9A C10G G33A U38C A41G | 0.01
109 | A16G G35U G44U | 0.02
110 | C8U C23A A25C G35U G36A U38C | 0.09
111 | C18A G27U U28A G40U | 0.06
112 | A4U U9C G17U C42G | 0.02
113 | G27C C31U G40C | 0
114 | C8A C42A U43G | 0.74
115 | G5U C10U G17U | 0.06
116 | C3A C8A C15A A41U | 0.64
117 | A11G A24G G40U | 0.01
118 | G21A C23G G33A | 0.79
119 | A6C A25G U28G | 0.06
120 | A12C C18A G36U | 0.02

Row | Variant | self-cleavage
121 | A12C C18A G21C U38C | 0
122 | A11G C42U G44U | 0.04
123 | C13A G19A C37G | 0.03
124 | C3A C13U C23U | 1.29
125 | C31G C37G C45A | 0.01
126 | A24C G27A G44C C46A | 0.06
127 | G5A C8G U38A | 0.22
128 | A25G G30C U34A G36U C37U | 0.01
129 | C8A C10A A24C A25C G33A | 0.01
130 | G22A U28A G35U C37A C46G | 0.08
131 | A12G G27A U38C | 0.11
132 | G7U A11C A14C A25U C31U U32C C37U G40A | 0
133 | G2C A6G A24U U38G | 0.01
134 | A4C G5U A12G C46A | 0.01
135 | G5A A26G C31A | 0.02
136 | G7C C10G G19C | 0.02
137 | A6U C15A A26G | 0.08
138 | G1U A12C U28C G30C A39U | 0
139 | A6U U9C C10G G17A C45G | 0.02
140 | C10A C13G G36U | 0.01
141 | C3U C15A G40C | 0
142 | G2U A4C A6G C8G A24G | 0.02
143 | C3A G5U G19U G30A | 0.16
144 | U9C C31A U43G | 0

Row | Variant | self-cleavage
145 | C3U C23A G40U | 0.11
146 | C3G A26U U34A A41U | 0.03
147 | A16G C23A G33C | 0
148 | C10G U20G A39C C42G | 0
149 | C15A U34G U38C | 0.03
150 | C18G C23U C45U | 0.08
151 | A6U G19A A24U G29U C31A | 0.1
152 | C15U C31A G35C | 0.06
153 | G5U A24G C42U C46A | 0.03
154 | C23A A26U G36C G44U | 0.01
155 | G1U G2U A4G C15U C45U | 0.11
156 | U20A G35U C46A | 0.05
157 | A26U G30A G40A | 0.05
158 | A4G A39U A41C | 0.09
159 | G5U C23A A25C U34C | 0.04
160 | G7A C10G A16C C42A | 0
161 | G5U G35U G40U | 0
162 | G5A U32A U34A | 0.11
163 | A12C A24C C45G | 0.01
164 | G7U C13A G21A A41U | 0.4
165 | G7U G22U G35A | 0.15
166 | A11G G35A A41C | 0.05
167 | U9C A14U G21A U43C | 0.02

Source: the RNAGym collection of RNA variant scans (doi:10.7554/elife.90254)
